Experimental data: the supplement of paper PMC11417369
The list shows a part of the results.

Tested on: PfHDP1 homeodomain (GST-tagged)
Assay: gcPBM binding intensity (ln(normalized median fluorescence intensity)); higher = stronger DNA binding
Method in brief: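 Plasmodium falciparum DNA-binding domains carrying a GST tag were expressed in E. coli and applied for 1 h, at about 25 μg on average, to an Agilent 4 × 180k array. The array held primer-extended double-stranded 36-bp intergenic genomic probes together with negative controls, and binding took place in 1× PBS with 1% milk, 0.2 mg/ml BSA, 0.5% salmon testes DNA and 0.03% Triton X-100. An Alexa488 anti-GST antibody detected bound protein, and the array was scanned at 488 nm. Binding intensity is taken as the highest Masliner-normalised natural-log median intensity across replicate spots of either probe orientation.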

First: TCTATTAACTGATGTGCATGTTATAACCTAGAAGTA [TGCATGCA_site359]
Second: TAATATCATTTAGACACACACTCTTACAATATGTAA [CACACA_site5434]
The “gcPBM binding intensity (ln)” value of the first is higher: 8.13 for the first, 6.22 for the second.

First: TGGATTCGTATATGTAGTACTATTTATATGTGATTT [XGTACX_site1581]
Second: TATATATATATATGTATATATGTATATCTATATTTA [CACACA_negctrl_site131]
The “gcPBM binding intensity (ln)” value of the first is lower: 6.43 for the first, 9.15 for the second.

First: TCTTATCCTACTTTTATTTTTACTTTTTTTTCTTAT [CACACA_negctrl_site111]
Second: TAAATTGAGTATATTACACACATATAAATATATTAT [CACACA_site4027]
The “gcPBM binding intensity (ln)” value of the first is higher: 6.75 for the first, 6.57 for the second.

Going from “ATATATATATATATATGTACATAATTAATAATTAGA [XGTACX_site5672]” to “TTTTAATTGTTTATTTGTACATATGTTTAATTATAT [XGTACX_site571]”, the “gcPBM binding intensity (ln)” value falls from 9.37 to 6.79.

First: ATTTATACAAAGCTTCGTACATAATGTATTCTTTTT [XGTACX_site2166]
Second: TTATTAAAAATGTATTGTACAAATTTATTAGTAAAT [XGTACX_site4799]
The “gcPBM binding intensity (ln)” value of the first is higher: 6.65 for the first, 6.44 for the second.

Compared with “TTATAATCTTTTGGTTCTATAGAATATCAAAAAATA [CACACA_negctrl_site1149]”, “TTTTTTGCTTGGGTGAGAAAAAATAAAATAAAGGAA [TGCATGCA_negctrl_site139]” is higher in “gcPBM binding intensity (ln)” value: 6.13 for the first, 6.85 for the second.

Compared with “TTTTTAAAAAAATTGATTCTTTTTCTTTTTTTTCTT [XGTACX_negctrl_site127]”, “TATTATTGTCATTTTTTTTTTTTTTTTTTCTATTTC [XGTACX_negctrl_site114]” is higher in “gcPBM binding intensity (ln)” value: 5.73 for the first, 5.85 for the second.

Going from “AAAAAATAAAAGGAAAAAAAAAAAAAAAAAAAAAAT [CACACA_negctrl_site635]” to “TAGACTCCCAGACACACACACACACCCATATAATAT [CACACA_site593]”, the “gcPBM binding intensity (ln)” value rises from 5.93 to 6.78.

First: TATTATTATTGTTGATGTACATTTAATATAATATAT [XGTACX_site4482]
Second: TTTTTTTTTTTTGGTGCATGCACATTTTGTTTTTTT [TGCATGCA_site570]
The “gcPBM binding intensity (ln)” value of the first is lower: 6.44 for the first, 10 for the second.

Going from “TTTATATTTTAAAAAATAATATTATGTATTTTTAAA [TGCATGCA_negctrl_site507]” to “GTACTTATTAAATGTGCATGTTGATATATAAATGTA [TGCATGCA_site902]”, the “gcPBM binding intensity (ln)” value rises from 6.01 to 8.83.

Compared with “TTTAATATATATATGTGTACATATAAATTATATATA [XGTACX_site8511]”, “ATATACATAAAAATATGTACATATAAAATATATACA [XGTACX_site2394]” is higher in “gcPBM binding intensity (ln)” value: 6.22 for the first, 6.32 for the second.

First: ATATAATAAACGTGTACACAATTAAATTATTATATA [CACACA_site5017]
Second: TATATTTATATATGTTGTACTCTCCAATAATATTCC [XGTACX_site4438]
The “gcPBM binding intensity (ln)” value of the first is higher: 6.75 for the first, 6.5 for the second.

Going from “TTTATTAATGGACACACACACACACCCAAAATAAAA [CACACA_site4294]” to “TCATATAAAACATGCACACATATGTACTCTTATAAA [CACACA_site3748]”, the “gcPBM binding intensity (ln)” value rises from 7.21 to 8.79.

First: TGAATAAAAAAACCTAGTACTTAAATAAGTATATTT [XGTACX_site7690]
Second: ATTAAATGATCAAGGTGTACATTAACAAGAACTATA [XGTACX_site7022]
The “gcPBM binding intensity (ln)” value of the first is lower: 5.5 for the first, 6.73 for the second.

Compared with “TATATATTTATATTTACACACAGTTACTATGTAGAT [CACACA_site3292]”, “TAAAAAAAATAGAAACGTACATAAAAAATAAATAAT [XGTACX_site5796]” is higher in “gcPBM binding intensity (ln)” value: 6.52 for the first, 6.95 for the second.

First: TATATATATACATACGTACACACAAATATTAAAATA [CACACA_site1950]
Second: TTTTGCGAAAAAAGGTGTACTGTAAATATATTGAGG [XGTACX_site8941]
The “gcPBM binding intensity (ln)” value of the first is higher: 7.45 for the first, 6.83 for the second.

First: AGCACCCACCAACACACACACACACCCACCCACCGA [CACACA_site368]
Second: TTTTTTTTGATTTGTTTGCACTTATTTCCACAATAA
The “gcPBM binding intensity (ln)” value of the first is lower: 6.51 for the first, 8.46 for the second.

Compared with “TTAATATGTTTAACCATTTTACATAAATTGATTTGT [CACACA_negctrl_site1100]”, “TTTTTTTTTAATTACATAAAATAAAAATATTTCTAT [CACACA_negctrl_site584]” is lower in “gcPBM binding intensity (ln)” value: 6.3 for the first, 6.06 for the second.

First: TACGTAAATTTTAATACACACTATAGGATATTCTGC [CACACA_site5418]
Second: AAATAAATAAATATACGTACATATATATAATATATA [XGTACX_site5124]
The “gcPBM binding intensity (ln)” value of the first is lower: 6.52 for the first, 6.59 for the second.

First: TTGTATCTTCATTTTATCAGAAAAAAAAAAAAAAAT [CACACA_negctrl_site775]
Second: ATTTTATTTATATACACACACATATATATATTATAT [CACACA_site822]
The “gcPBM binding intensity (ln)” value of the first is lower: 6.11 for the first, 7.09 for the second.

First: ATATATATATATAGGGGTACTTAAATTTTACTAACC [XGTACX_site1832]
Second: AATAAATAAATAAATTAATATATATATATATATAGA [CACACA_negctrl_site1661]
The “gcPBM binding intensity (ln)” value of the first is higher: 9.11 for the first, 6.19 for the second.

Compared with “AAAGGGTTACAAGAGGAACACACAAAAAAATAAATA [CACACA_site8406]”, “TAATAATAATACCAGCGTACATTTTTCTTTCCTACG [XGTACX_site4056]” is lower in “gcPBM binding intensity (ln)” value: 6.75 for the first, 6.41 for the second.
